Experimental data from paper PMC12136788.
This is one part of the list.

B1: chr1:90030187:90030288:+|3pUTR|ENSG00000162664|unk|FALSE|unique (ssRNA)
RNA: GGGAGUUCUACAGUCCGACGAUCACCCAGUUCAAGUCAUGAUAAUUUCUUGUUAACUAAUCUUGAUUCCACCCUUACCAUGAUAGAUUCAGUUUUCUACACAAGUAUAAGCUUUUAAAAAUGUAAUUCAGAUGAUGUUAAUCUCAACAGAGGAUUGAGCAUCA
B2: chr2:200815332:200815484:+|CDS|ENSG00000082153|unk|FALSE|bound_elsewhere (ssRNA)
RNA: GGGAGUUCUACAGUCCGACGAUCUCAGUUUCAAGACUGUAUUAUUCAAGGCUUAACUGAAACCGGUACUGAUUUGGAAGCAGUAGCUAAGUUUCUUGAUGCUUCUGGAGCAAAACUUGAUUACCGUCGAUAUGCAGAAACACUCAACAGAGGAUUGAGCAUCA
B3: chr22:36488912:36489013:-|3pUTR|ENSG00000100350|msi1|total|mutant (ssRNA)
RNA: GGGAGUUCUACAGUCCGACGAUCCCCGUCUCUUCUUCAUUGCCCUUCCUCACCAGCAAUCUGCACUUUCCCAUCAGGCGUCUCCGUCUCAUUUGUAAGUGCAUAAGAUAAUCACAGUGAUUUUUCAAAGCCCAGGAUCAUAAGCAACAGAGGAUUGAGCAUCA
B4: chr10:62807900:62808002:+|3pUTR|ENSG00000181915|unk|FALSE|unique (ssRNA)
RNA: GGGAGUUCUACAGUCCGACGAUCCAAAAAGUUGAUUAGCUUACCAAGAUUAUUAAUAGCAAUGUAUGUGUUAUAAUACAACUUAGUACAUUAAAGCUACGAAAACUCAUCCUGGCUGUAGGAUAGUAAUAAAGGAAGAAUUAUCAACAGAGGAUUGAGCAUCA
B5: chr20:2117184:2117286:+|CDS|ENSG00000125834|unk|total|mutant (ssRNA)
RNA: GGGAGUUCUACAGUCCGACGAUCGCUCCUGGGGACCUACAUUAAACAGGGGACUGAGAUCGUCCCUGUUGGUGAGGCGCUGCCCGAAAACCCAAAGAUGGAGUUGCACAUCCCCCAAAAACGCAGGACUUCCAUGUCUGAGGGCAACAGAGGAUUGAGCAUCA
B6: chr14:31448131:31448454:-|CDS|ENSG00000129480|control|control|control (ssRNA)
RNA: GGGAGUUCUACAGUCCGACGAUCUGUGACUCUAUGUGAAAAAGAAGUAGCUGCUAAUAGCAAGUGUGCUGAAGCUAGGGUUGUAGUGGAACAUGGCACUUAUGGGAACAGGCAGGUGUUAAAGCUGGACACCAACGGACCAUUCAACAGAGGAUUGAGCAUCA
B7: chr8:37846853:37847175:-|CDS|ENSG00000104221|control|control|control (ssRNA)
RNA: GGGAGUUCUACAGUCCGACGAUCGGCCAUCUGCACGCUGUUGUAUGCAGAUUUGGAUGUGUUUUCUAGCACUUACAUGCAGAUAGUGAAGCUCCUGGGACUGGAUGUGCCAUCUCUGUGCUUGGCAGAACUGGUGAAGACCUACAACAGAGGAUUGAGCAUCA
B8: ENSG00000044574:stop:overlap|stop_codon|ENSG00000044574|stop_codon|NA|stop_codon (ssRNA)
RNA: GGGAGUUCUACAGUCCGACGAUCAUGGAAGUGCAGGCCCUCCCCCAACUGGUGAAGAGGAUACAGCAGAAAAAGAUGAGUUGUAGACACUGAUCUGCUAGUGCUGUAAUAUUGUAAAUACUGGACUCAGGAACUUUUGUUAGGCAACAGAGGAUUGAGCAUCA
B9: chr1:158765746:158766682:-|CDS|ENSG00000197403|control|control|control (ssRNA)
RNA: GGGAGUUCUACAGUCCGACGAUCUUGCACUGAUACGUCUAUAAAUGUCCUAGUAGAUUUUGUUAUAAAUUCCUGCAAGAUCCUAGCCACCUUCCUGCUGAUCCUCUGCUCCUAUGUGCAGAUCAUCUGCACAGUGCUCAGAAUCAACAGAGGAUUGAGCAUCA
B10: chr6:134965076:134965177:-|3pUTR|ENSG00000112339|unk|FALSE|unique (ssRNA)
RNA: GGGAGUUCUACAGUCCGACGAUCAAAGGAACAAUGUGCAAUUGAUAUGUUUUUAGAUGAGAGAGAAAAAUUAAAGCUAAAAUUAGCUGCAAAGAAGUAUUAAUAAUCACCUCUGCAAAAAUUCUAAGUUGCCAACUGGCAAAGCAACAGAGGAUUGAGCAUCA
B11: ENSG00000198589:be:win_7801|CDS|ENSG00000198589|bound_else_gene|NA|bound_elsewhere_windowed (ssRNA)
RNA: GGGAGUUCUACAGUCCGACGAUCGUCUGUGGCUUCUGGGAUAAAAGUUUCAGAGUCUAUUCUACAGACACAGGAAGAUUGAUCCAAGUGGUGUUUGGCCAUUGGGAUGUCGUCACUUGCCUUGCUCGUUCUGAGUCAUAUAUUCAACAGAGGAUUGAGCAUCA
B12: ENSG00000198589:be:win_9501|3pUTR|ENSG00000198589|bound_else_gene|NA|bound_elsewhere_windowed (ssRNA)
RNA: GGGAGUUCUACAGUCCGACGAUCCGAAACAAUGUUAUUUGGUGGUGUAUAAUUCUACUUUUCUAGUAGAUUACUGUGUGGAAUUCUGUGAAAAAUAUUUGAGAAAAGGCCUGUAUUGCAUAAAUAAAUUCUUUGUAUGUUGUGCAACAGAGGAUUGAGCAUCA
B13: chr11:72192224:72192325:+|CDS|ENSG00000110195|unk|total|mutant (ssRNA)
RNA: GGGAGUUCUACAGUCCGACGAUCAGACAUGGCUCAGCGGAUGACAACACAGCUGCUGCUCCUUCCCGUGUGGGUGGCUGCCGCCGGGGAGGCUCAGACAAGGAUUGCAUGGGCCAGGACUGAGCUUCUCAAUGUCUGCAUGAACAACAGAGGAUUGAGCAUCA
B14: chr1:10469171:10469279:-|CDS|ENSG00000160049|unk|FALSE|unique (ssRNA)
RNA: GGGAGUUCUACAGUCCGACGAUCGUGGAUGAUGACGAUUACUUUCUGUGUCUACCUUCCAAUACUAAGUUUGUGGCAUUGGCUAGUAAUGAGAAAUGGGCAUACAACAAUUCAGGUAAGAAACUCUAGCCAUGUAUAAAACGGCAACAGAGGAUUGAGCAUCA

Each binder was assayed against MSI1 full-length (mouse, UniProt Q61474 1-362) (assay: nsRBNS (natural sequence RNA bind-n-seq); RBNS binding buffer (assumed for nsRBNS): 25 mM Tris pH 7.5, 150 mM KCl, 3 mM MgCl2, 0.01% Triton X-100, 500 ug/ml BSA, 20 U/ml SUPERase-In, 4 C; UNK is unkempt and MSI1 is Musashi-1; names of the RNAs are library labels; protein concentration not given here; high values mean tight binding).
Sequence of UniProt Q61474 (Q61474 whole entry): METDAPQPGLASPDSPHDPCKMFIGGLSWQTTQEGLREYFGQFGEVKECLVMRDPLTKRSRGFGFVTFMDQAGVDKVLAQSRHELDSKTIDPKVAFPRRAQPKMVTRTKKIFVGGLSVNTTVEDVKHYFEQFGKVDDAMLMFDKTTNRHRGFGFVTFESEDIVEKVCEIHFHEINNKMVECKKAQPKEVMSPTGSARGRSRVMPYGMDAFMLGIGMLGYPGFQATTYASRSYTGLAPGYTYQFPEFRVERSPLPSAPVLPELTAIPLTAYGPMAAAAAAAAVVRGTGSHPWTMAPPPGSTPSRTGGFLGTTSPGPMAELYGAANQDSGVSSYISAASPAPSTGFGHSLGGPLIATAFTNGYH

Binder | binding signal [enrichment R]
B1 | 2.46
B2 | 0.196
B3 | 0.467
B4 | 2.03
B5 | 0.615
B6 | 0.747
B7 | 0.299
B8 | 1.5
B9 | 0.99
B10 | 2.22
B11 | 0.319
B12 | 0.586
B13 | 0.403
B14 | 0.4
